Drawing on the RNAGym collection of RNA variant scans (doi:10.7554/elife.90254), this text covers self-cleavage for 167 variants.

B1: LINE1-full (parent)
chain: UACGUAGGUGGUUUUCCCCUGAUAGUGCUAAGGGGGCCUGGAAGUUUGGACUGGGCAGAGCUCAACACAGCGUGGCAAAGUGGCUGUGGCUAGACUGCCUCUCUGGAUUCCUCGUCACUCAGCAGGGCAUCUCUGAGAGAAAUGCC

The source gives no read counts; variants with many changes may rest on few reads.

In the data set the parent is B1. Briefly: self-cleavage, relative activity (ratio to wild type); higher = more cleavage; in vitro, sequencing; the parent is a self-cleaving ribozyme.
In the case of G32U U96A A138U, the self-cleavage worked out at 0.05.

As to U9A A43U A79U A92G, the self-cleavage is 0.24.

For the variant A22U U39G A124G, the self-cleavage stood at 0.91.

Regarding U23C A30G A69U, the self-cleavage is 0.12.

On to A24G A42U U81A A142G, for which the self-cleavage was 2.04.

As for U13A A42G A59G, the self-cleavage is 0.

Take U12C U39A U132C: the self-cleavage was determined as 1.66.

Consider U62C U108C U134A, for which the self-cleavage was found to be 0.

As for U9A A30C A136G, the self-cleavage was determined as 0.95.

Regarding A79G U81A A124U, the self-cleavage is 2.13.

Turning to U13C A57G A78U U81A U119A, the self-cleavage came out at 0.63.

U1C U15A A117G: the self-cleavage turned out to be 0.96.

U39A A43U U100C G126A: the self-cleavage turned out to be 1.74.

For the variant U39A G48A A65C A138G, the self-cleavage was found to be 0.04.

With U108C A121C U132C A140C, the self-cleavage amounted to 2.3.

U29C G72C U87A U119C: the self-cleavage worked out at 0.16.

With A50G C118U A124G, the self-cleavage was found to be 0.4.

For the variant A77G A79G G82A, the self-cleavage was 1.5.

With A77U U100A U130A, the self-cleavage was 0.87.

Regarding U20A U119C A140G, the self-cleavage worked out at 1.63.

With U14C U26C C56U A94G U115A, the self-cleavage came out at 0.18.

As to U9C U23G A64U A69G C71U C120U, the self-cleavage was determined as 0.13.

As for U12G A31G U102C U104A, the self-cleavage was determined as 0.

Turning to A43U C61U A69G A77G U143C, the self-cleavage is 0.6.

For the variant U47C A67U U130C, the self-cleavage came out at 0.63.

In the case of C19U A22G G125A, the self-cleavage amounted to 0.72.

As for G35A A94U G122U, the self-cleavage was 0.17.

For the variant A30U A31G C37G, the self-cleavage worked out at 0.33.

Turning to A6U U52C U87A, the self-cleavage was determined as 0.41.

In the case of A57G A107G G122A, the self-cleavage worked out at 0.61.

With G11A A22G A136G, the self-cleavage stood at 0.75.

Turning to U13C U130C A138G A142G, the self-cleavage is 2.63.

On to G11A A50G C90A U104C, for which the self-cleavage is 0.

Consider A42G C76U U100C A121U A142G, for which the self-cleavage is 1.74.

For A43G U112A A138G, the self-cleavage was found to be 1.66.

With A30U A57G A140G, the self-cleavage came out at 0.52.

Consider U5C U20C U109C A129G U130C, for which the self-cleavage came to 0.

In the case of G27A A43G G74A, the self-cleavage was determined as 1.53.

Regarding U45C A92U A136U, the self-cleavage stood at 0.62.

U26A A78G A121G A141G: the self-cleavage is 0.

On to A2U A78C A94G, for which the self-cleavage is 0.28.

For U15C G36A U62C C103A, the self-cleavage turned out to be 0.03.

Turning to U15A A30C U85C U130C, the self-cleavage was 0.

For U14C C71U U100C, the self-cleavage was 1.66.

On to U13C A43U U47A, for which the self-cleavage was determined as 0.93.

Consider A79G C84U U115C, for which the self-cleavage worked out at 0.15.

As for U15C U62A U119C, the self-cleavage was 0.14.

U47C U62C U81A G86A A142G: the self-cleavage worked out at 0.01.

Take U9A U45C A69U A136U: the self-cleavage was 0.04.

For the variant A43G A94G C145U, the self-cleavage turned out to be 0.37.

Regarding U14C U100A A129U, the self-cleavage turned out to be 1.1.

Regarding A22G U109C U132C A138G, the self-cleavage stood at 1.75.

On to G58A U102C A107U, for which the self-cleavage stood at 0.

Take C68A A78G U132C: the self-cleavage came to 0.

For the variant U9C U47C A79U A141G, the self-cleavage came to 1.54.

With U13C U20C A141G C146U, the self-cleavage was found to be 1.29.

For the variant A77U G83A C98U A141G, the self-cleavage is 0.17.

For the variant U87C G114A A140G, the self-cleavage was found to be 0.17.

As to G72U A78G U81G A136U A141G, the self-cleavage is 0.46.

In the case of A6G A22G G25A G36U U100C, the self-cleavage was 1.38.

Take U47C A69G C103U: the self-cleavage is 0.35.

In the case of U115C A117C A140G, the self-cleavage amounted to 2.35.

Take G74A A77G A78G U100A: the self-cleavage stood at 0.28.

On to C66U A94G U96A, for which the self-cleavage came out at 0.04.

For U14C A22G U39A A43G A117G, the self-cleavage amounted to 0.

For the variant C66A A67G U115C, the self-cleavage came out at 0.1.

For U52A C116A A138G A141G, the self-cleavage is 0.64.

With U20A A79G G122A U134A, the self-cleavage was 1.35.

For the variant U14A U73C U85C, the self-cleavage was found to be 0.

On to U14C C123U U134C A138G, for which the self-cleavage came to 0.82.

For U9C U47A U91C U119A A142G, the self-cleavage amounted to 1.22.

As to U85A U100C A138G, the self-cleavage was found to be 0.1.

For the variant U12G U13C U102A A141G, the self-cleavage came to 1.62.

Take A69U G72A U102A U119C A142G: the self-cleavage was 0.06.

Consider A77G U104A U115C, for which the self-cleavage was 1.31.

As for U62C A94U U102C, the self-cleavage turned out to be 0.04.

For the variant A64G A69G G72A, the self-cleavage is 0.12.

In the case of A50U U52A G82A U96C, the self-cleavage was found to be 0.05.

With A31C U52C U73A, the self-cleavage was determined as 2.12.

Regarding U1C U5C A121G, the self-cleavage was 2.02.

On to U39C A65G C145G, for which the self-cleavage was 0.

Consider A22G U132A A141G, for which the self-cleavage came to 2.3.

For A2U U29C G32A U91C, the self-cleavage was determined as 0.91.

On to U14C C76U A121U A129U, for which the self-cleavage was determined as 1.78.

For the variant U62C U100C U130A A136G, the self-cleavage came to 0.06.

With C51G A64U A92G A124U, the self-cleavage was 0.3.

U9C A50G A124G U130C: the self-cleavage worked out at 1.15.

Turning to U14A U91C A117G, the self-cleavage turned out to be 0.66.

Consider U45C A59U U96A, for which the self-cleavage was 0.08.

Turning to U39C G40U U130C, the self-cleavage came out at 1.86.

For the variant C71U U96C U109C, the self-cleavage worked out at 0.08.

As for A22G U85A A94G A142G, the self-cleavage came to 0.31.

For A31G U100C U112A, the self-cleavage stood at 0.37.

With U14C A65G U102C U104A, the self-cleavage was 0.

Regarding C19U A65U U91C, the self-cleavage turned out to be 0.09.

On to U14C A57G A92U, for which the self-cleavage was 0.27.

Regarding G4A U87A A121C, the self-cleavage was 0.09.

In the case of G4U U13A U45A A79U U112C U143A, the self-cleavage was 1.41.

For the variant U12C U73A A92G, the self-cleavage turned out to be 0.28.

Regarding U46C U52A C71U, the self-cleavage came to 1.24.

U39C A69C U81A: the self-cleavage worked out at 0.04.

For the variant A22G A94U A140G, the self-cleavage came to 0.41.

C37U A65U U108C C123U U143G: the self-cleavage was 0.05.

As for U13G A42G A69G U81C, the self-cleavage was 0.

For the variant U46C C66U U109C, the self-cleavage was determined as 0.05.

Regarding U13C A64G U81A U115A A140G, the self-cleavage came to 0.44.

On to U9C U85G A142G, for which the self-cleavage was determined as 0.14.

Take G44U U91A A92U U104G: the self-cleavage amounted to 0.68.

For A2G U47G U130C, the self-cleavage came out at 0.57.

Take A31G U47A C63U: the self-cleavage turned out to be 0.16.

Take U46C A78U C110U: the self-cleavage is 2.33.

For A31G G60U A65G, the self-cleavage was 0.06.

A31U G55A A78C U81C A117U: the self-cleavage turned out to be 0.21.

On to U85C A124U A129U, for which the self-cleavage is 0.27.

Take U15C U47C G72A A140G: the self-cleavage amounted to 1.15.

With G33A U81C U134G, the self-cleavage amounted to 1.42.

C3U A64G A94G G137U: the self-cleavage came out at 0.26.

With U39C A57G U108C, the self-cleavage was determined as 1.84.

As to U62C G74A U109A A142G, the self-cleavage was 0.02.

For G53A A77G A121G U130C, the self-cleavage came out at 2.55.

Consider U13A C51A A129U U134C, for which the self-cleavage is 0.73.

As for U13A A30G G75C, the self-cleavage came to 0.53.

Take U9G U14A A42U U104A: the self-cleavage amounted to 1.52.

Consider A69G U96C U109A, for which the self-cleavage worked out at 0.09.

Take A78G U85C A140U: the self-cleavage is 0.22.

U26C A42G A138G: the self-cleavage is 0.26.

G125A A140G A142G: the self-cleavage was 2.51.

Regarding U12C A22G G33A A50U U143A, the self-cleavage is 0.55.

In the case of A22G U87C G88A U100A A129G, the self-cleavage was 0.

Turning to G8A G53C U104A, the self-cleavage was found to be 1.5.

Consider C71A A129G A138G, for which the self-cleavage came out at 0.28.

Consider G97A U109A A142C, for which the self-cleavage stood at 0.07.

U46G A64C A124U: the self-cleavage was determined as 0.07.

On to U23A C71A U115C U119G, for which the self-cleavage came out at 0.53.

For U87A U96C U100C, the self-cleavage turned out to be 0.17.

In the case of U12G A124C A129G, the self-cleavage was determined as 1.1.

For C103A C131U A141G, the self-cleavage was 1.13.

With U15A U26C A79G, the self-cleavage worked out at 0.

In the case of U132C A140G U143A, the self-cleavage is 0.94.

Take A43G U47A U73G A78G A117G: the self-cleavage amounted to 0.31.

In the case of U20C U26A U87A A141G, the self-cleavage stood at 0.

As to A6G C95U A140G, the self-cleavage turned out to be 0.27.

As for G10A U115A G135U, the self-cleavage was 1.41.

Consider C76U C128A A129G, for which the self-cleavage is 1.35.

As for U62C A79G U85C, the self-cleavage was 0.

Turning to U12G U47C U104C U115A, the self-cleavage was determined as 1.84.

In the case of A22G G35A A117G, the self-cleavage was 1.27.

Take U13C U100C U108C: the self-cleavage came to 2.3.

Consider G55A A67G C71U A77G U102G, for which the self-cleavage worked out at 0.15.

As to A42C U47A G49A A69U, the self-cleavage was 0.05.

Take G44A U96C A136G: the self-cleavage was determined as 0.19.

Consider A64G U102A U134C, for which the self-cleavage amounted to 0.23.

On to C68U U81A A142G, for which the self-cleavage was found to be 0.18.

As for U13C U15C A43G, the self-cleavage was 1.84.

Turning to A43G G60U A142G, the self-cleavage is 0.03.

In the case of A78G A141U A142G, the self-cleavage is 1.69.

As for U12C U26C U143C, the self-cleavage turned out to be 1.2.

For U81C U100G U134A, the self-cleavage came out at 0.84.

For U9A U26G A43G, the self-cleavage was 0.36.

On to U12G U96A A124U, for which the self-cleavage came out at 0.03.

Take U14C A42U A141G: the self-cleavage is 1.01.

A2G G58U A59G A136U: the self-cleavage turned out to be 0.37.

Regarding A69C U87A U102C, the self-cleavage is 0.06.

As to A2G U47A U87A, the self-cleavage is 0.21.

Regarding A64G U130C A138U, the self-cleavage worked out at 0.27.

For the variant A78G U81A C113A U119G, the self-cleavage turned out to be 0.13.

Consider U9A U12C A124U, for which the self-cleavage worked out at 1.14.
